Data as given in article PMC4336329 (PLoS ONE, 2015).
The whole screen tested about 310,000 compounds, of which about 14,000 (4.5%) showed an effect of 50% or more. Effects have a minus sign here. The list shows a part of the results.

Biological target: human ether-à-go-go-related gene (hERG) potassium channel (human, UniProt Q12809)
Assay: primary screen, population patch clamp on CHO cells stably expressing hERG
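Note: peak tail current of the secondary pulse compared with the same well before compound.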

Chain of human ether-à-go-go-related gene (hERG) potassium channel (Q12809 whole entry, looked up): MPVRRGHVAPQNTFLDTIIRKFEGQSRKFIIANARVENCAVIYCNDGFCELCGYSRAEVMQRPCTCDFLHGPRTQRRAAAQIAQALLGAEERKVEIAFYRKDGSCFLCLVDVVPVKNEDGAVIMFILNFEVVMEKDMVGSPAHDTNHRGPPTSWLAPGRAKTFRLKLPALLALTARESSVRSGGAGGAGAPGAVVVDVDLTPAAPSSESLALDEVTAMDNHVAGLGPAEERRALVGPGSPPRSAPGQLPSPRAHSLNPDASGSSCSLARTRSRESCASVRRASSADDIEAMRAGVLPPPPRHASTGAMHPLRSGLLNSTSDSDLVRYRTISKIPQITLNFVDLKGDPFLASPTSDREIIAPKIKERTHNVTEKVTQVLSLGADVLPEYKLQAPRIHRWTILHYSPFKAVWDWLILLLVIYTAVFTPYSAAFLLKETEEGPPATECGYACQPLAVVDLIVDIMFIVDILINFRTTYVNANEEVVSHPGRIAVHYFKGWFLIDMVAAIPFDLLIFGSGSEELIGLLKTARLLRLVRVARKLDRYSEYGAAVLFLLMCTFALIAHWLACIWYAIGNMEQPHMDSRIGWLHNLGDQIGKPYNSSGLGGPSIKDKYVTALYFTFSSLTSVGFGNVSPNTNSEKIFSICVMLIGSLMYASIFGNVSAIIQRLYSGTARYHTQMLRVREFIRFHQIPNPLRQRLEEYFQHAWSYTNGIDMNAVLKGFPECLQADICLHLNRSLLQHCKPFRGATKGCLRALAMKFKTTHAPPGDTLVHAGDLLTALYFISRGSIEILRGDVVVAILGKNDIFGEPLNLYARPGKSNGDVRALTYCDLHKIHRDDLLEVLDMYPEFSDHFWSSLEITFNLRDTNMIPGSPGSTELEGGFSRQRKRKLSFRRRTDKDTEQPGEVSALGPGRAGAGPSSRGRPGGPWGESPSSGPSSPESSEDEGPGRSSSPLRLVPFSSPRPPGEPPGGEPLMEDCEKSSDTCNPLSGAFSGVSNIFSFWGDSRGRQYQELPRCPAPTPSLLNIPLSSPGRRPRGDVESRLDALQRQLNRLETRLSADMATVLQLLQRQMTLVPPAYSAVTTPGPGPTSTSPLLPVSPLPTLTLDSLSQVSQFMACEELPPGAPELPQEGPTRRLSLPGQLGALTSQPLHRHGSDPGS

In order of rising “hERG current change (%, negative = inhibition) at 10uM” value:
1. Cc1cc(N2CCCC2)nc2ccc(NC(=S)NC(C)C)cc12  -71.6%
2. CCCCN(Cc1ccccc1)C(=O)C1CCN(Cc2sccc2C)CC1.O=C(O)C(=O)O  -68.3%
3. CCC1CSC(Nc2ccc(C(=O)/C=C/c3ccc(OC)c(OC)c3)cc2)=N1 (stereo not drawn)  -52.4%
4. COc1ccc(SC[C@H](Cc2ccccc2)N2CCN(C)CCC2=O)cc1  -52.2%
5. CCCCNc1nc2ccccc2n1CC(=O)N1CCc2ccccc2C1  -49.6%
6. CC(OC(=O)c1ccccc1C(=O)N(C)c1ccccc1)C(=O)Nc1ccccc1[N+](=O)[O-] (stereo not drawn)  -45.5%
7. c1ccc(CNc2nc(-c3ccccn3)nc3ccccc23)cc1  -43.5%
8. CCCn1c(=O)c2c(nc3n2CCCN3Cc2ccccc2)n(C)c1=O  -34.3%
9. COc1cc(/C=C(\C#N)C(N)=O)ccc1OCc1c(C)no[n+]1[O-]  -34%
10. Cc1ccc(Cn2nnnc2CN2CCC(NC(=O)c3ccccc3F)CC2)cc1  -27.2%
11. Cc1ccc(-c2nnc(SCC(N)=O)nc2-c2ccc(C)cc2)cc1  -24.2%
12. C[C@H]1CCC(=O)N(CCSc2ccc(Br)cc2)CC1  -23.8%
13. O=S(=O)(Nc1ccc2c(c1)CCC2)c1cccs1  -21.2%
14. Cc1noc(NS(=O)(=O)c2ccc(NC(=O)CSc3nnc(-c4ccccc4)n3C3CCCCC3)cc2)c1C  -19.3%
15. Cc1cc(C)c(NC(=O)CNC(=O)COC(=O)C2CCN(c3ccc(C(F)(F)F)cn3)CC2)c(C)c1  -18.4%
16. N#Cc1c(-c2ccc(Br)cc2)nc2n(c1=O)CCCS2  -16.1%
17. CCOc1ccc(NC(=O)N2CCC(c3nc4ccccc4o3)CC2)cc1  -15.6%
18. COC(=O)c1sccc1NC(=S)N1CCN(c2cccc(C)c2C)CC1  -14.2%
19. CCCCOc1ccc(NC(=O)c2cc(F)c(F)cc2Cl)cc1  -12.9%
20. CC(C)Cc1nc(N2CCCCC2)c(C#N)c2c1CCC2  -11.3%
21. O=S(=O)(NCC(c1cccnc1)N1CCOCC1)c1cccs1 (stereo not drawn)  -10.9%
22. Cn1c(=O)c2c(nc(SCCCC#N)n2Cc2ccccc2F)n(C)c1=O  -9.16%
23. COc1ccc(C(=O)O/N=C(\N)c2ccccc2)c(OC)c1  -7.56%
24. CC(=O)c1ccccc1Oc1cc(NN2CCCCC2)c([N+](=O)[O-])cc1[N+](=O)[O-]  -7.24%
25. CNCc1ccccc1OCc1ccc(F)cc1.Cl  -7.08%
26. CCn1c(SCC(=O)N2CCc3ccccc32)nnc1-c1ccncc1  -7.04%
27. CCOc1ccc(CC(=O)NC2CCN(Cc3ccccc3)CC2)cc1  -6.23%
28. Br.CC(=O)Nc1nc(C)c(-c2csc(Nc3ccccn3)n2)s1  -6.15%
29. COc1ccc(/C(N)=N/OC(=O)CCCN2C(=O)c3ccccc3C2=O)cc1OC  -5.38%
30. COc1ccc(N(CC(=O)NCCSC2CCCCC2)S(C)(=O)=O)c(OC)c1  -4.87%
31. COc1cccc(C2CC(c3ccc(C(C)C)cc3)n3nc(N)nc3N2)c1 (stereo not drawn)  -4.8%
32. Cc1cc(C)cc(OCC(=O)Nc2nonc2NC(=O)COc2cc(C)cc(C)c2)c1  -3.34%
33. Cc1cc(C)nc(SCC(=O)NC2=NC(=O)C(C)S2)n1 (stereo not drawn)  -2.95%
34. Cc1ccc(-c2ccccc2)n1-c1ccc(C(=O)O)cc1  -0.962%
35. O=C1c2ccccc2C(=O)N1CCc1c[nH]c2ccc(O)cc12  0.718%
36. CC1CN(CCS(=O)(=O)c2cc(Cl)ccc2Cl)CC(C)O1 (stereo not drawn)  1.08%
37. CC(=O)N1CCC(N(CCN2CCOCC2)C(=S)Nc2ccc(C)c(C)c2)CC1  1.37%
38. CC(=O)Nc1scc(C)c1-c1nc2ccccc2s1  1.39%
39. COc1ccccc1C(=O)c1c(C)c(CCC#N)n2ccccc12  1.62%
40. Cc1ccsc1C=Nc1ccc(O)cc1  1.81%
41. CCN(CC(=O)Nc1c(F)cccc1F)C(=O)C1COc2ccccc2O1 (stereo not drawn)  1.86%
42. N#Cc1ccccc1S(=O)(=O)N1CCN(C(=O)C2CCC2)CC1  2.8%
43. O=C(NC(=S)N(CCO)Cc1ccccc1)c1cc(Br)ccc1Cl  3.48%
44. Cc1nnc(SCC(=O)Nc2cc(C(F)(F)F)ccc2Cl)n1C  3.51%
45. Cc1cccc(Cn2c(=O)n(Cc3ccco3)c(=O)c3ccccc32)c1  3.71%
46. O=C(NCC(c1cccnc1)N1CCOCC1)Oc1ccccc1 (stereo not drawn)  4.11%
47. O=C(Nc1ccc(N2CCOCC2)cc1)C1CCN(S(=O)(=O)c2ccccc2F)CC1  4.41%
48. CCOC(=O)N1CCc2c(sc3nc[nH]c(=O)c23)C1  4.56%
49. CC1=C(C(=O)NC(C)CCc2ccccc2)C2(CCC(C)CC2)OC1=O (stereo not drawn)  5.1%
50. COc1ccc(N=C2NC(=O)/C(=C\c3ccco3)S2)cc1  5.24%
51. COc1ccc(-c2nc(C#N)c(N3CCN(c4ccccc4)CC3)o2)cc1  5.48%
52. COC(=O)C1=C(C)N(C(C)C)C(=O)C1(NC(C)=O)C(F)(F)F (stereo not drawn)  5.9%
53. CC(=O)c1c(COC(=O)c2ccc(C)cc2)nc2ccccc2[n+]1[O-]  6.12%
54. COc1cc(/C=C2/C(=O)c3cccc([N+](=O)[O-])c3C2=O)c(Br)cc1O  6.37%
55. CCC(O)CNc1nc(-n2nc(C)cc2C)nc2sc3c(c12)CC(C)(C)OC3 (stereo not drawn)  6.47%
56. COc1cc(/C=N/NC(=O)c2ccncc2)c([N+](=O)[O-])cc1OC  6.83%
57. COc1ccc(-c2[nH]ncc2CN(C)Cc2c(C)n[nH]c2C)c(OC)c1  8.4%
58. COC(=O)Nc1ccc(S(=O)(=O)N2CCCc3ccccc32)cc1  8.63%
59. Cc1ccc(S(=O)(=O)N2CCN=C2SCc2ccc(Cl)c(Cl)c2)cc1  9.21%
60. COCCNC(=O)C1CCCN(c2ncccn2)C1 (stereo not drawn)  9.29%
61. COCc1nnc(NC(=O)c2ccc(NC(=O)C(C)C)cc2)s1  9.33%
62. O=C(Cc1ccc(Cl)cc1)Nc1ccc(-c2nnc(-c3ccco3)o2)cc1  10.4%
63. N/C(=N\NC(=O)c1sccc1OCc1ccc(Cl)cc1Cl)c1ccccn1  10.9%
64. O=S(=O)(c1ccc(S(=O)(=O)N2CCOCC2)cc1)N1CCCC1  11.4%
65. COc1ccc(C(=O)/C=C/c2ccc(OC)c(COc3ccc(F)cc3)c2)cc1  11.5%
66. O=c1c2ccccc2nc(SCc2ccccc2Cl)n1Cc1ccccc1  11.7%
67. CCC(C)(C)C(=O)O  11.8%
68. COc1ccc(C(=O)n2nc(C)c(Br)c2C)cc1OC  11.9%
69. CC(C)(C)c1ccc(C(=O)N/C(=C\c2ccco2)C(=O)O)cc1  12.7%
70. CC(C)(C)C(=O)Nc1c(Br)c(C2CC2)nn1-c1ccccc1  12.7%
71. COc1cccc(/C=N/Nc2ccc([N+](=O)[O-])cc2)c1O  12.8%
72. O=C(OCc1cccc2ccccc12)C1CC(=O)N(c2ccccc2)C1 (stereo not drawn)  13%
73. CC1=[N+](CC(=O)NC(C)(C)C)CCc2ccccc21.[Cl-]  13%
74. COc1cc(C(C)=O)ccc1OCC(=O)Nc1ccc2nc(C)sc2c1  13.4%
75. CC(C)C(=O)NC(=S)Nc1ccc(S(=O)(=O)N(C)Cc2ccccc2)cc1  13.5%
76. O=C(NC1CCCCC1)C1CCN(c2cnccn2)CC1  13.9%
77. CCc1cccc(CC)c1NC(=O)COc1ccccc1C(=O)c1cc(C#N)c(=O)n(C2CCCCC2)c1  14.4%
78. Cc1ccc(S(=O)(=O)Nc2ccc(S(=O)(=O)NCC3CCCO3)cc2)cc1 (stereo not drawn)  15%
79. CCc1nnc(NC(=O)CSc2nnc(COc3ccccc3C)o2)s1  15.2%
80. CCOC(=O)CSC1=NC(=O)CS1  16.1%
81. Cc1nnc(SCCC(C)C)[nH]c1=O  16.2%
82. CC(=O)OCn1ncc(N2CCOCC2)c(Br)c1=O  16.5%
83. Cn1cc(P(=O)(N2CCOCC2)N2CCOCC2)cc1P(=S)(N1CCOCC1)N1CCOCC1  16.6%
84. Cc1[nH]c2ccccc2c1/C=N/NC(=O)c1cccc([N+](=O)[O-])c1  17.1%
85. O=C1/C(=C/c2ccc(F)cc2)SC(=S)N1N1CCOCC1  17.8%
86. COc1ccccc1NC(=O)c1c(NC(=O)CCC(=O)O)sc2c1CCCCC2  17.8%
87. O=C(NN1CCCCC1)c1cccc2ccccc12  22.2%
88. CCCCOc1ccc([N+](=O)[O-])cc1C(=O)O  24.9%
89. O=C(COc1cccc2ccccc12)Nc1ccc(Cl)cc1C(=O)O  29.6%
90. C=CCOc1c(OC)cc(/C=N/Nc2cccc(C(=O)O)c2)c(Br)c1Br  39.1%
